The supplement of paper PMC9588766
In all, about 1,900 compounds were measured (“cell viability of compound + 1 nM pemigatinib relative to pemigatinib-only (DMSO) wells”: median about 0.95, lowest 2% from about 0.22 on). This is one part of the list.

Each compound was assayed on PDC-DUC18828 (assay: cell viability of compound + 1 nM pemigatinib relative to pemigatinib-only (DMSO) wells (fraction); PDC-DUC18828 is a patient-derived cholangiocarcinoma cell line; higher = less growth inhibition). Settings: first compound 1 µM; pemigatinib concentration 1 nM; 72 h.
Protocol: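 Selleck Bioactive library screen in the patient-derived FGFR2 fusion-positive ICC cell line PDC-DUC18828 (500 cells/well). Each compound was tested at 1 uM with 1 nM pemigatinib, in triplicate, for 72 h. Viability was read by CellTiter-Glo and normalised to plate DMSO controls. Value is the paper's averaged normalised viability.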
COc1ccc(-c2cc(=O)c3c(OC)c(OC)c(OC)c(OC)c3o2)cc1OC [Nobiletin] + CCN1C(=O)N(c2c(F)c(OC)cc(OC)c2F)Cc2cnc3[nH]c(CN4CCOCC4)cc3c21 [pemigatinib] showed a cell viability of 0.904.
CCOC(=O)N1c2ccc(C(F)(F)F)cc2[C@@H](N(Cc2cc(C(F)(F)F)cc(C(F)(F)F)c2)C(=O)OC)C[C@H]1CC [Torcetrapib] + CCN1C(=O)N(c2c(F)c(OC)cc(OC)c2F)Cc2cnc3[nH]c(CN4CCOCC4)cc3c21 [pemigatinib] showed a cell viability of 0.968.
Work on Cc1ccc(C(=O)Nc2cccc(C(F)(F)F)c2)cc1Nc1nc(-c2cccnc2)nc2c1cnn2C + CCN1C(=O)N(c2c(F)c(OC)cc(OC)c2F)Cc2cnc3[nH]c(CN4CCOCC4)cc3c21 [pemigatinib] yielded a cell viability of 0.908.
With O=c1cc[nH]c(=O)[nH]1 [Uracil] + CCN1C(=O)N(c2c(F)c(OC)cc(OC)c2F)Cc2cnc3[nH]c(CN4CCOCC4)cc3c21 [pemigatinib] the cell viability was 1.02.
Compound Cc1cc(C)nc(NS(=O)(=O)c2ccc(NC(=S)NC(=O)COc3ccc(Br)cc3Cl)cc2)n1 + CCN1C(=O)N(c2c(F)c(OC)cc(OC)c2F)Cc2cnc3[nH]c(CN4CCOCC4)cc3c21 [pemigatinib] has a cell viability of 1.05.
Compound O=C(Nc1cccnc1)N1CCC(Cc2cccc(Oc3ccc(C(F)(F)F)cn3)c2)CC1 + CCN1C(=O)N(c2c(F)c(OC)cc(OC)c2F)Cc2cnc3[nH]c(CN4CCOCC4)cc3c21 [pemigatinib] has a cell viability of 0.918.
Cc1cccc(-c2nn3c(c2-c2ccnc4ccc(C(N)=O)cc24)CCC3)n1 + CCN1C(=O)N(c2c(F)c(OC)cc(OC)c2F)Cc2cnc3[nH]c(CN4CCOCC4)cc3c21 [pemigatinib] showed a cell viability of 1.03.
Compound CC(C)c1nc(CN(C)C(=O)N[C@@H](CCN2CCOCC2)C(=O)N[C@H](CC[C@H](Cc2ccccc2)NC(=O)OCc2cncs2)Cc2ccccc2)cs1 [Cobicistat (GS-9350)] + CCN1C(=O)N(c2c(F)c(OC)cc(OC)c2F)Cc2cnc3[nH]c(CN4CCOCC4)cc3c21 [pemigatinib] has a cell viability of 0.913.
O=C(O)c1ccc(C=C2SC(=S)N(c3cccc(C(F)(F)F)c3)C2=O)cc1 + CCN1C(=O)N(c2c(F)c(OC)cc(OC)c2F)Cc2cnc3[nH]c(CN4CCOCC4)cc3c21 [pemigatinib] was tested, and the cell viability was 0.962.
Compound COc1ccc(-c2cc(=O)c3c(OC)c(OC)c(OC)c(OC)c3o2)cc1 [Tangeretin] + CCN1C(=O)N(c2c(F)c(OC)cc(OC)c2F)Cc2cnc3[nH]c(CN4CCOCC4)cc3c21 [pemigatinib] has a cell viability of 0.928.
